Where “and” joins values, the source holds several entries; their conditions need not be identical. Identical values can stand only once. The campaign covered roughly 350,000 compounds. About 31,000 (8.9%) were called active. This list was built around the results that the source calls inconclusive (neither active nor inactive); the mix of calls is not that of the screen. Calls follow the shape of the dose curve; as a rule, active = well fitted inhibition curve with a large enough effect; inconclusive = small, poorly fitted or top-dose-only effect; inactive = no such curve, though single readings can be large or run the other way. A potency beside an inconclusive call is a rough fit, not a confirmed value. The source holds several records for some structures; these can differ, active in one and inactive in another.
What follows are compounds tested against Histone-lysine N-methyltransferase EHMT2 (Homo sapiens) (UniProt Q96KQ7) (assay: qHTS Assay for Inhibitors of Histone Lysine Methyltransferase G9a). Details: G9a H3K9 monomethylation, AlphaScreen, 2 h; activity, negative = inhibition: at 59 µM (top of the series) unless noted.
In short: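 Signal arises when biotinylated H3K9 peptide, once monomethylated, bridges streptavidin donor and antibody-captured acceptor beads. Enzyme at 20 nM was preincubated 15 min with test compounds; peptide 500 nM and SAM 20 uM then reacted for 2 h.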
% is scaled to controls: 0 for no effect and ±100 for the full control effect; potency is read from the fitted curve at half-maximal effect; tags tell the direction and shape of the fitted curve.
Also: nearly all actives have a fitted effect of over 75% in size.

Chain of UniProt Q96KQ7 (Q96KQ7 whole entry, looked up): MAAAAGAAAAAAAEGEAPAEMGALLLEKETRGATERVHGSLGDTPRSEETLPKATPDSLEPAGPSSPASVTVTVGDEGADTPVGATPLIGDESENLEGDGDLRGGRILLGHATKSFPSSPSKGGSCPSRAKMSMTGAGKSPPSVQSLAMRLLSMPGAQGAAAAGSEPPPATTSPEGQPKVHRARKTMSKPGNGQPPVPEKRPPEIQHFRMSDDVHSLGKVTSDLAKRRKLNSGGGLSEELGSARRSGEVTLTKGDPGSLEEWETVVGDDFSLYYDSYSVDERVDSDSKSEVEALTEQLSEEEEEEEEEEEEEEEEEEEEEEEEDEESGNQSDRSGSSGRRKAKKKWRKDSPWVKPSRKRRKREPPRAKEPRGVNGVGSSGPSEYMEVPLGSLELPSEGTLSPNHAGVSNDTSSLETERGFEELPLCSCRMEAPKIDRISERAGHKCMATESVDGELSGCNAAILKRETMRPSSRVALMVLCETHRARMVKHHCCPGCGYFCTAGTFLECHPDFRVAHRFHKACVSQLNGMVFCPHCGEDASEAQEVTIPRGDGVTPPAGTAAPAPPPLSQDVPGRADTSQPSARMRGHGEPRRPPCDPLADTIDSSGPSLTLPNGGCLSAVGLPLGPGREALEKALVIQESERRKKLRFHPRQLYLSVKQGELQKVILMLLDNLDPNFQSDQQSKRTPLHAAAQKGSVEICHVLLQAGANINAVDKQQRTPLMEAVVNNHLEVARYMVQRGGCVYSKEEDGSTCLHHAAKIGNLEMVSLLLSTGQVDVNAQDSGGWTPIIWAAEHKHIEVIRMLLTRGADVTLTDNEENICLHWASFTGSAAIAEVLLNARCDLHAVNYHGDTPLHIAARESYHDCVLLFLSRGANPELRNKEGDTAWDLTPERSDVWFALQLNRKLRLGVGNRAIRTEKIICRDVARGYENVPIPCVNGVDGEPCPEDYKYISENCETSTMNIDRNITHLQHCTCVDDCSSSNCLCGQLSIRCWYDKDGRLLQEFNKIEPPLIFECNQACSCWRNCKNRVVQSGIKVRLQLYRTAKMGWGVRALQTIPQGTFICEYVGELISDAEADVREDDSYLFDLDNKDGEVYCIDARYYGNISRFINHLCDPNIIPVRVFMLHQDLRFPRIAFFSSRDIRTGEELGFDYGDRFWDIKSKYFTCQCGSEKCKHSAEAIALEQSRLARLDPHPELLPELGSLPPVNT

SMILES | Potency | activity, negative = inhibition
Cc1cccc(-n2cnc(C(=O)N3CCN(C)CC3)c2)n1 | inactive | 
O=C(CCN1C(=O)/C(=C/c2ccc(Cl)cc2)SC1=S)Nc1cccc(C(=O)O)c1 | active: 44.7 µM | 
CO/N=C(\C(=O)N[C@@H]1C(=O)N2C(C(=O)O)=C(COC(C)=O)CS[C@@H]12)c1csc(N)n1 |  | inactive: -38.8% [at 12.7 µM]
CC1(C)OC(=O)C(=CNCC(O)c2ccccc2)C(=O)O1 (centres undefined) |  | inactive: 29% [at 12.7 µM]
O=C(O)c1cccc(CN2C(=O)S/C(=C/c3ccccc3[N+](=O)[O-])C2=O)c1 | inconclusive: 89.1 µM [inhibitor, single point] | 
CC(C)(C)c1ccc(OCC(=O)NCc2ccco2)c(Br)c1 | inconclusive: 3.55 µM [inhibitor, partial curve, poor fit] | 
O=C(CSc1ccc2nnc(-c3ccncc3)n2n1)NCc1ccco1 | inactive | 
O=C(COc1ccc2ccccc2c1)N1CCNCC1 | inconclusive: 89.1 µM [inhibitor, single point] | 
COc1ccccc1N1CCN(C(=O)C2CCCO2)CC1 (centres undefined) | inconclusive: 28.2 µM [inhibitor, single point] | 
Cc1csc2nc(CSc3nc4ccccc4o3)c(Br)n12 | inconclusive: 0.891 µM [inhibitor, partial curve] | 
Cc1cc(Nc2ccccc2)n(-c2nc3ccccc3[nH]2)n1 | inactive | 
N#CC1=C(N)NC(SCC(=O)Nc2ccccc2)=C(C#N)C12CCCCC2 | inconclusive: 39.8 µM [inhibitor, single point] | 
CCc1ccc(NC(=O)CC2C(=O)N(c3ccc(OC)cc3)C(=O)N2Cc2ccc(OC)cc2)cc1 (centres undefined) | inactive | 
CC(C)CN1CCN(Cc2nc(C(C)C)cs2)CC1CCO (centres undefined) | inconclusive: 79.4 µM [inhibitor, single point] | 
O=C(CCS(=O)(=O)c1cccc2nsnc12)NC1CCCCCC1 | active: 39.8 µM | 
COc1cc(C2CC(=O)Oc3c(C(CCN4CCCC(C)C4)c4ccc(N(C)C)cc4)c(OC)cc(OC)c32)cc(OC)c1OC (centres undefined) | inconclusive: 3.16 µM [inhibitor, single point] | 
CCOc1ccc(C(=O)NCCC2=CCCCC2)cc1OCC | inconclusive: 1.78 µM [inhibitor, full curve, poor fit] | 
NC1=NC2(CCCCC2)N(c2cccc(Cl)c2)C(N)=N1 |  | inactive: 17.3% [at 12.7 µM]
CC(=O)c1cccc(S(=O)(=O)NCC2CCCCC2)c1 | inactive | 
O=C(COC(=O)c1ccc(Cl)c(S(=O)(=O)N2CCCCC2)c1)NCc1ccco1 | inconclusive: 39.8 µM [inhibitor, partial curve, poor fit] | 
O=C1N/C(=N/S(=O)(=O)c2ccccc2)S/C1=C/c1cccnc1 | inconclusive: 89.1 µM [inhibitor, single point] | 
CC(C)CNC(=O)CSc1nnc(-c2ccc(Cl)cc2)n1N | inactive | 
Nc1nonc1-n1nnc(C(=O)N/N=C/c2ccc(Cl)cc2Cl)c1CN1CCCCC1 | active: 35.5 µM | 

SMILES | Potency | activity, negative = inhibition
CN1CCN(S(=O)(=O)c2ccc(NN)nc2)CC1 | inconclusive: 3.16 µM [inhibitor, partial curve, poor fit] | 
Cc1c(NS(=O)(=O)c2ccc(N3CCN(C)CC3)c([N+](=O)[O-])c2)c(=O)n(-c2ccccc2)n1C | inconclusive: 50.1 µM [inhibitor, partial curve, poor fit] | 
CC(=O)Nc1ccc(NC(C)=C(C#N)C#N)cc1 | inactive | 
Cc1ccn2c(=O)c(C(=O)NCCc3ccc(S(N)(=O)=O)cc3)c(O)nc2c1 | inactive | 
COc1ccc2c(c1)NC(c1cc(Cl)cc(Cl)c1O)c1cccn1-2 (centres undefined) | inconclusive: 50.1 µM [inhibitor, partial curve] | 
Cc1ccc(-n2nc3ccc(NC(=O)C(C)C)cc3n2)cc1 | active: 12.6 µM | 
O=C(O)c1cccc(-c2ccc(/C=N/n3cnc4sc5c(c4c3=O)CCCC5)o2)c1 | inconclusive: 50.1 µM [inhibitor, partial curve] | 
CN(Cc1ccccc1)C(=O)COC(=O)/C=C/c1ccco1 | active: 35.5 µM | 
O=C(CSc1nc(=O)n2ccccc2n1)NCc1ccccc1 | inactive | 
CSc1ccc(/C=N/Nc2cccc(C(=O)O)c2)cc1 | active: 3.98 µM | 
CCn1c(-c2cc(OC)c(OC)c(OC)c2)n[nH]c1=S | inconclusive: 2.51 µM [inhibitor, partial curve, poor fit] | 
COc1ccc(C)cc1NC(=O)CCNS(=O)(=O)c1ccc2c(c1)CC(C)N2C(C)=O (centres undefined) | inactive | 
CC(C)CC1Nc2ncnc(N3CCN(c4ccccc4)CC3)c2N(Cc2ccccc2)C1=O (centres undefined) | inconclusive: 3.98 µM [inhibitor, single point] | 
O=[N+]([O-])c1ccc(CN2CCOCCOCCN(Cc3ccc([N+](=O)[O-])cc3)CCOCC2)cc1 | inconclusive: 22.4 µM [inhibitor, single point] | 
COc1ccc(NC2CCCN(C(=O)CSc3ccccc3)C2)cc1 (centres undefined) | active: 35.5 µM | 
CCN(CC)C(=O)CSc1nc2c(sc(=S)n2-c2ccccc2)c(=O)n1-c1ccc(OC)cc1OC | active: 2 µM | 
COc1ccc(OC)c(NC(=O)c2c(NCc3ccc(C)o3)sc3c2CCCCC3)c1 | active: 1.58 µM | 
COc1cccc(NC(=O)N(Cc2cn(C)c3ccccc23)C2CCCCC2)c1 | inconclusive: 22.4 µM [inhibitor, partial curve, poor fit] | 
Cc1cc(Nc2ccccc2Cl)n2nc(-c3ccco3)nc2n1 |  | inactive: 0.286% [at 12.7 µM]
Cc1cccc(OCCn2c(-c3ccco3)nc3ccccc32)c1 | inconclusive: 50.1 µM [inhibitor, partial curve, poor fit] | 
Cc1cc(C)cc(C(=O)Oc2coc(CSc3nnc(NC(=O)C4CC4)s3)cc2=O)c1 | inconclusive: 89.1 µM [inhibitor, single point] | 
CC(C)c1ccc(S(=O)(=O)c2cn(Cc3ccc(F)cc3)c3cc4c(cc3c2=O)OCO4)cc1 | inactive | 
CCN(CC)Cc1nc2c(c(=O)[nH]1)C1(CCCCC1)Cc1ccccc1-2 | inconclusive: 50.1 µM [inhibitor, partial curve, poor fit] | 

SMILES | Potency | activity, negative = inhibition
CCOc1ccc(NC(=O)COc2ccc(C(=O)N3CCC(C(N)=O)CC3)cc2OC)cc1 |  | inactive: 4.45% [at 0.501 µM]
COc1cc(C2C(C(=O)OC(C)C)=C(C)N=C3SCCC(=O)N32)ccc1OCc1ccccc1 (centres undefined) | inactive | 
CS(=O)(=O)NCCc1csc2nc(-c3ccccc3)nn12 | inactive | 
COc1ccc(S(=O)(=O)NC2(C(F)(F)F)NC(=O)N(CCc3ccc(OC)c(OC)c3)C2=O)cc1 (centres undefined) | inactive and active: 50.1 µM | 
CC(C)COc1ccc(C(=O)OCCN2CCOCC2)cc1 | inconclusive: 0.891 µM [inhibitor, full curve, poor fit] | 
Cc1[nH]c2ccc(C(=O)OCCN(C)C)cc2c1C | inconclusive: 50.1 µM [inhibitor, partial curve, poor fit] | 
C=C(C)C(=O)Nc1ccc(NC(C)C)cc1 | inconclusive: 39.8 µM [inhibitor, single point] | 
Cc1ccc2nc(SC(C)C(=O)NCc3ccc4c(c3)OCO4)[nH]c2c1 (centres undefined) | inconclusive: 79.4 µM [inhibitor, single point] | 
COc1ccccc1CNC(=O)CCCn1nc(C)c2c(C)n(-c3ccc(C)cc3)nc2c1=O | inconclusive: 6.31 µM [inhibitor, partial curve, poor fit] | 
Cc1ccc(C)c2[nH]c(=O)c(CN(CCN3CCCC3)C(=O)Nc3ccc(F)cc3)cc12 | inconclusive: 89.1 µM [inhibitor, single point] | 
Cc1nc2sc(C(c3ccc(F)cc3)N3CCN(C(=O)c4ccco4)CC3)c(O)n2n1 (centres undefined) | inactive | 
COc1ccccc1C(c1nnnn1Cc1ccccc1)N1CCN(C2CCCC2)CC1 (centres undefined) | inconclusive: 35.5 µM [inhibitor, single point] | 
CC1CCN(C(=O)c2ccc(S(=O)(=O)Cc3cc(F)ccc3F)c([N+](=O)[O-])c2)CC1 | inconclusive: 44.7 µM [inhibitor, partial curve] | 
C#CCNC(=O)C1=C[C@@H](C)C[C@@H](OCc2ccc(CO)cc2)O1 |  | inconclusive: -92% [inhibitor]
CC1CCCN(Cc2nc3c(c(=O)n(C)c(=O)n3C)n2Cc2c(F)cccc2Cl)C1 (centres undefined) | inconclusive: 31.6 µM [inhibitor, full curve] | 
COc1cccc(Nc2nc(N)c([N+](=O)[O-])c(NCc3ccco3)n2)c1 | inconclusive: 56.2 µM [inhibitor, single point] | 
Cc1ccc(-n2ncc3c2CCCC3NC(=O)CSc2ccccn2)cc1C (centres undefined) | inconclusive: 12.6 µM [inhibitor, partial curve, poor fit] | 
COC(=O)c1nnn(-c2nonc2N)c1CSc1ccccn1 | inconclusive: 89.1 µM [inhibitor, partial curve, poor fit] | 
Cc1cccc2c1-c1sc(C(=O)N3CCN(c4ccc(F)cc4)CC3)cc1CO2 | inactive | 
COC(=O)c1c(N)c(C#N)c(C)n1-c1ccccc1 | inconclusive: 50.1 µM [inhibitor, partial curve, poor fit] | 
O=C1Nc2cc(C(=O)NCCCN3CCCC3)ccc2S/C1=C\c1ccccc1 |  | inconclusive: -90.4% [inhibitor]
CC(Nc1cccc([N+](=O)[O-])c1)C(=O)Nc1ccc(S(=O)(=O)N2CCCC2)cc1 (centres undefined) | active: 50.1 µM | 
CCOc1cccc(CC(=O)N2CCc3c([nH]c4ccccc34)C2c2ccc(C)cc2)c1OCC (centres undefined) | inconclusive: 39.8 µM [inhibitor, partial curve, poor fit] | 

Source: PubChem BioAssay AID504332 (National Center for Advancing Translational Sciences (NCATS), 2011)
